# According to article PMC4336329 (PLoS ONE, 2015):
# Hit rate of the full screen: of about 310,000 compounds, about 14,000 (4.5%) showed an effect of 50% or more. Effects have a minus sign here. The list shows a part of the results.
# Target: human ether-à-go-go-related gene (hERG) potassium channel (human, UniProt Q12809)
# Experiment: primary screen, population patch clamp on CHO cells stably expressing hERG
# 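Also: peak tail current of the secondary pulse compared with the same well before compound.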
# human ether-à-go-go-related gene (hERG) potassium channel, sequence (Q12809 whole entry, looked up): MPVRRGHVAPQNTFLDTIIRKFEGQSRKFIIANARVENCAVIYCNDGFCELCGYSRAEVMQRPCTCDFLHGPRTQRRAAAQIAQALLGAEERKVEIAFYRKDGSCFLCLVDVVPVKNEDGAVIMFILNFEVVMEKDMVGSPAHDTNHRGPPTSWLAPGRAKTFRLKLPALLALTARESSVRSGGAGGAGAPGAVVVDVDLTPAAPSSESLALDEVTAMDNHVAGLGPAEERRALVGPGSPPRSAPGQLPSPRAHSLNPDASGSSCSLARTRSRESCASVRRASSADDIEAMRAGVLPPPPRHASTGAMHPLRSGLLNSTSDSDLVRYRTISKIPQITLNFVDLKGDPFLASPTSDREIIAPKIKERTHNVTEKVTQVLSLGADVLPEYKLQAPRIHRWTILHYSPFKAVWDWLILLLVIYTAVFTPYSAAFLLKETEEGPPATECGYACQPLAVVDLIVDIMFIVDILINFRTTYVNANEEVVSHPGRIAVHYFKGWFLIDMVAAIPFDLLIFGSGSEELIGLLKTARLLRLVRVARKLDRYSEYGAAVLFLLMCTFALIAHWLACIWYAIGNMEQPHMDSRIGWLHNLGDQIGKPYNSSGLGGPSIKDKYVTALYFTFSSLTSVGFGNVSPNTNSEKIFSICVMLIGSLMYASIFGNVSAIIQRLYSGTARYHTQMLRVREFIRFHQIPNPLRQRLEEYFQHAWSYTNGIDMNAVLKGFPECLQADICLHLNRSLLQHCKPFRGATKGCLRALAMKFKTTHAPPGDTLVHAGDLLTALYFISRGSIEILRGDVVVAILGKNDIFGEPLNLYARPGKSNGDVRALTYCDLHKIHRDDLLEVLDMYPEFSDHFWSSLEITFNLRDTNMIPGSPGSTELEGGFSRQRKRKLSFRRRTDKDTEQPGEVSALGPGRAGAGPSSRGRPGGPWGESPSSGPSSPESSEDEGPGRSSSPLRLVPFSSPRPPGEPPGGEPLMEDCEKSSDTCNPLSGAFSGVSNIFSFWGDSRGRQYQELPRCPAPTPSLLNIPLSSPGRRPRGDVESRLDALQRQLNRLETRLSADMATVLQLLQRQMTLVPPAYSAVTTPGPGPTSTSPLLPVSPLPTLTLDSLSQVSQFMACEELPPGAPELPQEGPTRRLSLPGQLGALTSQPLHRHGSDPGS
row,SMILES,"hERG current change (%, negative = inhibition) at 10uM [%]"
1,Cc1ccc(NC(=O)CNC(=O)C2CCCCC2)nc1,12.5
2,COc1ccc(-n2c(=O)c3ccccc3n(Cc3ccccc3F)c2=O)cc1OC,6.17
3,COc1ccccc1N1CCN(CC(O)COc2cccc3ccccc23)CC1.Cl (stereo not shown),-68.3
4,O=C(NCCCNC(=O)c1ccc(F)cc1)c1ccc(F)cc1,7.81
5,COc1ccccc1NS(=O)(=O)/C=C/c1ccccc1,-16.8
6,CN(CC(=O)Nc1ccc(S(=O)(=O)N2CCCC2)cc1)CC(=O)Nc1cccc(F)c1,-23.1
7,O=C(NC(=S)NCC1CCCO1)C(c1ccccc1)c1ccccc1 (stereo not shown),2.82
8,CCOC(=O)/C(C#N)=C/c1cc(C)n(-c2ccccc2)c1C,20.8
9,NC(=O)c1cccc2c1-c1ccccc1/C2=N/NC(N)=S,-2.22
10,CCOC(=O)C1CCCN(CC(O)COc2cccc(C)c2)C1.Cl (stereo not shown),-23.7
11,N#Cc1nc(COc2ccc(Cl)cc2)oc1N1CCCC1,-38.9
12,COc1cccc(NC(=O)N2CCCC(C(=O)NCc3ccc(F)cc3)C2)c1 (stereo not shown),-24.1
13,CC(Oc1ccc(C(=O)NCCc2ccccc2)cc1)C(=O)O (stereo not shown),4.88
14,NS(=O)(=O)c1ccc(NC(=S)NCc2ccc(Cl)cc2)cc1,14.1
15,Cc1ccccc1NC(=O)c1csc2c1CCCC2,-20.9
16,COc1ccc(CC(=O)O/N=C(\N)c2ccc(Br)cc2)cc1OC,11.7
17,CN1C(=O)/C(=C/C=C2/CCCN2C)N(C)C1=S,8.63
18,Cc1ccc(CNC(=O)C2(c3cccs3)CCOCC2)cc1,-1.07
19,O=S(=O)(Nc1ccc2ccccc2n1)c1ccccc1Cl,7.96
20,O=c1c2ccccc2nc2sc(Nc3ccc(F)cc3)nn12,1.78
21,CSc1ccc(-c2nc(CSCC(=O)NC3CC3)c(C)o2)cc1,-16.8
22,N=c1c2c(ncn1CCCO)Oc1ccc3ccccc3c1C2c1ccccc1 (stereo not shown),-53.6

row,SMILES,"hERG current change (%, negative = inhibition) at 10uM [%]"
1,CCCCNS(=O)(=O)c1ccc(NC(=O)c2c(-c3ccccc3Cl)noc2C)cc1,4.28
2,Cc1cc(C(=O)N/N=C/c2ccc(N(C)C)cc2)c2ccccc2n1,1.4
3,COc1ccc(S(=O)(=O)N2CCOC2CNC(=O)C(=O)NCCc2ccccc2)cc1C (stereo not shown),-23.4
4,Cc1ccc(OCc2cc(C(=O)N3CCC(Oc4cccnc4)CC3)no2)cc1C,-56.7
5,O=C(O)COc1ccccc1/C=N/NC(=O)CSc1nc2ccccc2c(=O)n1-c1ccccc1,-0.123
6,CCCS(=O)(=O)N1CCC(C(=O)NCc2ccc3c(c2)OCO3)CC1,-9.83
7,CC1(C)CC(=O)C2=C(C1)c1c(ccc3ccccc13)NC2c1ccc(OCC(=O)O)cc1 (stereo not shown),9.19
8,O=C(/C=C/c1ccccc1)NCCSc1ccc(Cl)cc1,12.9
9,COc1cc(SC#N)ccc1N=Cc1c(C)[nH]n(-c2ccc(C)cc2)c1=O,-1.36
10,COc1cccc(NC(=O)CSCc2cc(=O)n3ccsc3n2)c1,15.2
11,O=C(Nc1ccc(-c2cscn2)cc1)C1CCCN(Cc2ccc(CO)o2)C1 (stereo not shown),16.6
12,COc1ccc(-n2[nH]c(C)cc2=O)cc1,28.2
13,COc1ccc2cc(C(=O)C3CCCN(Cc4cnc(N5CCOCC5)s4)C3)ccc2c1 (stereo not shown),14.6
14,C/C(=N\NC(=O)c1ccccc1N)c1ccc(NC(=O)Cc2ccccc2)cc1,12.6
15,CC1=C2C(=O)C3C(CC=C4CC(O)CCC43C)C2CCC12OC1CC(C)CNC1C2C (stereo not shown),26.8
16,CN1C(=O)c2ccc(NC(=O)C3CCCCC3)cc2C1=O,-10.8
17,CC(O)Cc1nsc(NC(=O)c2ccc(Br)o2)n1 (stereo not shown),-19.9
18,COc1cccc(NC(=O)CSc2nnc(-c3ccoc3C)n2-c2ccccc2)c1,-85.7
19,Cc1oc(-c2ccccc2F)nc1CS(=O)(=O)CC(=O)N1CCCCCC1,0.289
20,COCCN1C2=C(C(=O)CC(C)(C)C2)C(c2ccc(O)c(OC)c2)C2=C1CC(C)(C)CC2=O,-17.9
21,Cl.Cn1c(=N)n(CC(O)c2cccc3ccccc23)c2ccccc21 (stereo not shown),-67
22,Cc1ccc(NC(=O)C(OC(=O)c2ccc(O)cc2)c2ccccc2)cc1Cl (stereo not shown),-6.49

row,SMILES,"hERG current change (%, negative = inhibition) at 10uM [%]"
1,O=C(O)/C=C/C(=O)NC1CCC(CC2CCC(NC(=O)/C=C/C(=O)O)CC2)CC1 (stereo not shown),32
2,Clc1cnc(N/N=C/c2cccs2)c(Cl)c1,-0.833
3,COc1ccccc1CCC(=O)NCCCn1ccc2ccccc21,21.4
4,O=C(CCc1ccccc1)Nc1ccncc1,-56.8
5,COc1cccc(-c2nc(CS(=O)CC(=O)NC(C)CCc3ccccc3)c(C)o2)c1 (stereo not shown),-8.54
6,Cc1cc(=O)[nH]c(N)n1,27.6
7,O=C(NCc1ccccc1)c1c[nH]c2ccc(S(=O)(=O)Nc3ccc4c(c3)OCCO4)cc2c1=O,6.01
8,CC(=O)c1c(C)n(-c2ccc(N(C)C)cc2)c2ccc(OCC(N)=O)cc12,3.73
9,O=C1C2CC=CCC2C(=O)N1Cc1nnc(-c2ccc(Cl)cc2)o1 (stereo not shown),-17.9
10,Cc1[nH]n(-c2ccc([N+](=O)[O-])cc2)c(=O)c1C=NCCc1ccc(S(N)(=O)=O)cc1,10.7
11,CN=C1S/C(=C\c2ccc(O)c(OC)c2)C(=O)N1C,11.5
12,O=c1[nH]nc(-c2ccc(F)cc2)cc1Cc1cccs1,-6.01
13,CCC1(c2ccccc2)NC(=O)N(CC(=O)Nc2ccc(N3CCCC3)cc2C)C1=O (stereo not shown),-7
14,O=C(NC(=O)N1CCN(c2cccc(Cl)c2)CC1)c1ccccc1,6.99
15,OC(COc1cc(Cl)c(Cl)cc1Cl)CN1CCN(c2ncccn2)CC1 (stereo not shown),-11.3
16,CCOC(=O)c1c(-c2ccccc2Cl)csc1NC(=O)CSc1nc(C)cc(=O)[nH]1,4.37
17,Cc1ccc(/C=N/NC(=S)NC(C)C)o1,5.49
18,Nc1nc(COc2ccccc2C=O)nc(Nc2ccccc2)n1,-23.3
19,CC(C)NC(=O)COc1coc(CN2CCN(c3cccc(Cl)c3)CC2)cc1=O,-16.1
20,Cc1ccc(S(=O)(=O)N(C)c2ccccc2C(=O)Nc2ccc3c(c2)OCCO3)cc1,-16.9
21,CS(=O)(=O)Nc1ccc(Oc2ncccn2)cc1,14.4
22,O=C(N=C1SC2CS(=O)(=O)CC2N1CCc1ccccc1)C1CCCCC1 (stereo not shown),1.42

row,SMILES,"hERG current change (%, negative = inhibition) at 10uM [%]"
1,Br.C1=C(c2cccc3ccccc23)N2CCN=C2S1,-34.5
2,CCc1nc(OCC(=O)c2ccccc2)c(C#N)c2c1COC(C)(C)C2,10.8
3,O=C1C=C(c2cc(F)ccc2F)C[C@@H](c2ccc(F)cc2)C1,-4.05
4,CCOc1ccc(Nc2ncnc3c2cnn3Cc2ccccc2)cc1,-5.66
5,CCOC(=O)N1CCN(C(=O)C2CCN(C(=O)c3ccc(C(C)(C)C)cc3)CC2)CC1,-31
6,N#Cc1cc([N+](=O)[O-])ccc1NC(=O)COC(=O)C12CC3CC(CC(C3)C1)C2,-10.7
7,O=C(O)/C=C/C(=O)NCc1ccccn1,30
8,CCCNC(=O)N1CCN(C(c2ccccc2)c2ccccc2)CC1,8.23
9,COC(=O)c1sccc1NC(=O)CN1CCN(c2ccc(F)cc2)CC1,6.89
10,CCC1Sc2ccc(S(=O)(=O)CCC(=O)Nc3cc(C)ccn3)cc2NC1=O (stereo not shown),11.9
11,O=C(Nc1ccccc1)c1nc[nH]c1C(=O)NCc1ccccc1,5.02
12,COc1ccc(CN2CCc3ccc(NC(=O)CCc4ccccc4OC)cc3C2)c(O)c1,-35.2
13,O=C(NNc1ccccc1[N+](=O)[O-])Nc1ccc(F)cc1F,10.9
14,C=CCn1c(CCCOc2ccc(Cl)cc2Cl)nnc1SCC(=O)Nc1nccs1,3.79
15,COc1ccc2oc(C(=O)OCC(=O)N3CC(C)CC(C)C3)c(C)c2c1 (stereo not shown),-56.1
16,CC(=O)N1CCc2cc(Br)cc(S(=O)(=O)N3CCN(c4ccccn4)CC3)c21,10.7
17,NC(=O)CSc1cn(Cc2ccc(F)cc2)c2ccccc12,2.24
18,CC12c3ccccc3C(c3ccccc31)C1C(=O)N(c3cccnc3)C(=O)C12 (stereo not shown),-8.22
19,N#Cc1cc(NC(=O)c2ccc(F)cc2)c(=O)n2c1[nH]c1ccccc12,15.1
20,Cc1cccc(OCc2nc3ccccc3c(=O)n2N)c1,6.37
21,COc1ccc(OC)c(C2CC(=O)Nc3c2c(=O)[nH]c2ncnn32)c1 (stereo not shown),1.66
22,CCOC(=O)c1sc(NC(=O)CSc2nc(O)c(Cc3ccccc3)c(=O)[nH]2)nc1C,14.6
